# Experimental data published in PubChem BioAssay AID504339 (National Center for Advancing Translational Sciences (NCATS), 2011).
# Values joined by “and” are separate entries in the source; they are usually repeats but may differ in a detail not shown here. Equal values may be shown once. Hit rate of the full screen: of about 390,000 compounds, about 17,000 (4.4%) were called active. The shares of active, inactive and inconclusive entries below differ from those in the screen. Calls follow the shape of the dose curve; as a rule, active = well fitted inhibition curve with a large enough effect; inconclusive = small, poorly fitted or top-dose-only effect; inactive = no such curve, though single readings can be large or run the other way. A potency beside an inconclusive call is a rough fit, not a confirmed value. Numbered stars: 1 amine (or outer) side, 2 acyl side, 3 side chain; on linkers, the order of the positions; unused ones are H or OH. Bridge positions count the residues as written; N and C are the ends. Square brackets hold non-standard residues; d marks the D form. Peptide text beside a SMILES is read from it. ξ: configuration not given here. hSer(Ph(2-I,4-NO2,6-CO)) = O=C([C@H](CCOc1c(I)cc([N+](=O)[O-])cc1C(=O)[*:3])N[*:1])[*:2]; ξD = NC(CC(=O)O)C(=O)O
# Target: Lysine-specific demethylase 4A (Homo sapiens) (UniProt O75164)
# UniProt O75164, sequence (O75164 whole entry, looked up, the tested form may be a part): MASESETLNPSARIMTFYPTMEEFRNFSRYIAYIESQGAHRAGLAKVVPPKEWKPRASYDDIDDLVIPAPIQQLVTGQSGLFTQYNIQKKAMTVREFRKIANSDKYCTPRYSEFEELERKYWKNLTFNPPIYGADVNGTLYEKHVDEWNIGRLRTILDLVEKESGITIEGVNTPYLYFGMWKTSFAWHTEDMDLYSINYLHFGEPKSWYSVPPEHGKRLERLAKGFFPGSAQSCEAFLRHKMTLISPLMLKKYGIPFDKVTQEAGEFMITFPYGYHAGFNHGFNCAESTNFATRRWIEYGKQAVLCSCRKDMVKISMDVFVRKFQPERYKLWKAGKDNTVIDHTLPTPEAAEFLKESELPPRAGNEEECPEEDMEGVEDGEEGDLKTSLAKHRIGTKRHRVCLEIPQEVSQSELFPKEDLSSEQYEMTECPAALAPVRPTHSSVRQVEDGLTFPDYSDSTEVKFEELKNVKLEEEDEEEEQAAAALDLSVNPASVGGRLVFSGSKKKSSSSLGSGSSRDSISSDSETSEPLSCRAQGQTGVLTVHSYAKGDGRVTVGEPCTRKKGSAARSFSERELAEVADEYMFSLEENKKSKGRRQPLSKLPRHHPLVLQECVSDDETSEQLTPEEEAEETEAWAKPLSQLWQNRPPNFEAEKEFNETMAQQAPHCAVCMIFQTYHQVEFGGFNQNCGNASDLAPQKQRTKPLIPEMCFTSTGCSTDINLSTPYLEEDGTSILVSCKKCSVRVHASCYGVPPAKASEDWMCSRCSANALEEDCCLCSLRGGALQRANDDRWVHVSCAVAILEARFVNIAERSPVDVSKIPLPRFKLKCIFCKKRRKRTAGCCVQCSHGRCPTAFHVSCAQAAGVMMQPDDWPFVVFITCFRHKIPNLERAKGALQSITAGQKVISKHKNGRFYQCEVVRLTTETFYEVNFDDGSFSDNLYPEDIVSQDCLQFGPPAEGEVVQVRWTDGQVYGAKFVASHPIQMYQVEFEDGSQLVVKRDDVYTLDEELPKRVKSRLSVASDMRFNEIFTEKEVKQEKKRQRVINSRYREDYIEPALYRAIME
# Test: qHTS Assay for Inhibitors of JMJD2A-Tudor Domain; also: nearly all actives have a fitted effect of over 50% in size
# Settings: AlphaScreen JMJD2A-Tudor / H3K4me3 peptide binding; activity change, negative = inhibition: at 114 µM (top of the series)
# % is scaled to controls: 0 for no effect and ±100 for the full control effect; potency is read from the fitted curve at half-maximal effect; tags tell the direction and shape of the fitted curve.
SMILES,"activity change, negative = inhibition",Potency
O=C(c1ccco1)N1CCN(C/C=C/c2ccccc2)CC1,inactive: -13.7% [at 11.4 µM],
S=C(NCCc1ccccc1)N1CCN(C2CCCCC2)CC1,inactive: -4.11%,
CC1=NN(Cc2ccccc2)C(=O)C1C(c1ccc(Cl)cc1)C(C#N)C#N (configuration not stated),,"inconclusive: 56.2 µM [inhibitor, partial curve]"
CC(=O)Nc1ccc(-c2csc(Nc3cc(C)ccn3)n2)cc1,,"inconclusive: 50.1 µM [inhibitor, partial curve]"
Cc1cccc(NC(=S)N2CCC(C(=O)c3ccc(F)cc3)CC2)c1,,"inconclusive: 20 µM [inhibitor, full curve, poor fit]"
CC1(C)C2([N+](=O)[O-])CN3CC1([N+](=O)[O-])CN(C2)C3c1ccc(O)c(O)c1 (configuration not stated),,"inconclusive: 35.5 µM [inhibitor, single point]"
Clc1ccc(C2Nc3cccc4cccc(c34)N2)cc1Cl,inactive: -12.2%,
CSc1ccc(C2c3c(-c4ccccc4O)n[nH]c3C(=O)N2Cc2ccncc2)cc1 (configuration not stated),,"inconclusive: 50.1 µM [inhibitor, partial curve, poor fit]"
C=CCn1c(O)c(C2=c3ccccc3=NC2=O)sc1=Nc1ccc(O)cc1,,active: 22.4 µM
Cc1ccc(C2CC(=O)Nc3c2c(C)nn3-c2nc(C)cc(C)n2)c(C)c1 (configuration not stated),inactive: -7.62%,
CCN(CC)CCOc1ccccc1OC,,active: 1.26 µM
O=C1N=C(N2CCN(c3ccccc3)CC2)SC1Cc1ccccc1 (configuration not stated),,"inconclusive: 70.8 µM [inhibitor, single point]"
NC(=S)NN=C1c2ccccc2-c2cc(Br)ccc21,,"inconclusive: 25.1 µM [inhibitor, full curve, poor fit]"
O=c1[nH]c(CSc2nc(-c3ccccc3)cs2)nc2ccccc12,,"inconclusive: 89.1 µM [inhibitor, single point]"
COc1ccc(N/N=C(/N=Nc2nc(C)cc(=O)[nH]2)c2ccccc2)cc1,,"inconclusive: 56.2 µM [inhibitor, partial curve, poor fit]"
COC(=O)c1cc(-c2ccccc2)sc1N,,"inconclusive: 79.4 µM [inhibitor, partial curve]"
C/C(=N\NC(=O)c1ccco1)c1ccc(NC(=O)C(F)(F)F)cc1,,"inconclusive: 56.2 µM [inhibitor, partial curve, poor fit]"
CN(C)CCCNC(=O)C[C@H]1C[C@H](C(=O)N2CCCCC2)[C@@]2(C)c3[nH]c4cc(CCC(=O)N(C)C)ccc4c3CCN2C1=O,inactive: -12.3%,
CCCCCCOC(=O)C(C#N)c1nc2ccccc2nc1N1CCN(CC)CC1 (configuration not stated),,"inconclusive: 39.8 µM [inhibitor, partial curve]"
Cc1ccc(C(c2sc3nc(-c4ccco4)nn3c2O)N2CCN(c3ccc(F)cc3)CC2)cc1 (configuration not stated),,"inconclusive: 50.1 µM [inhibitor, partial curve]"
CC(C)C(NS(=O)(=O)c1cccc2nsnc12)C(=O)Nc1nc2ccc(Cl)cc2s1 (configuration not stated),,"inconclusive: 79.4 µM [inhibitor, partial curve]"
COc1ccc(Cc2nc3ccccc3n2CC(=O)N/N=C/c2ccc(C)cc2O)cc1OC,,"inconclusive: 63.1 µM [inhibitor, partial curve, poor fit]"
Cc1c[nH]c2cccc(OCC(CNC(C)(C)C)OC(=O)c3ccccc3)c12 (configuration not stated),,"inconclusive: 56.2 µM [inhibitor, partial curve]"

SMILES,"activity change, negative = inhibition",Potency
O=[N+]([O-])C1=CC=C2C(=NC3(CCCCC3)N2O)C1=NC1CCCCC1,,"inconclusive: 3.98 µM [inhibitor, full curve, poor fit]"
COc1ccc(C(C(=O)NC2CCCC2)N(C(=O)c2snc(C(N)=O)c2N)c2cccc(O)c2)cc1 (configuration not stated),,"inconclusive: 22.4 µM [inhibitor, partial curve]"
COc1ccc(CNC(=O)c2cc(S(=O)(=O)N3CCCCC3)ccc2Cl)cc1OC,inactive: -6.85%,
Oc1ccc(Br)cc1-c1nc2cnccn2c1NC1CCCCC1,,"inconclusive: 56.2 µM [inhibitor, partial curve]"
CC12CCC(O)CC1=CCC1C2CCC2(C)C1CCC21CCC(=O)O1 (configuration not stated),inactive: -12.9%,
O=[N+]([O-])c1nn(-c2ccc(Cl)cc2)n(O)c1=NCc1ccccc1,,"inconclusive: 56.2 µM [inhibitor, partial curve]"
CC(=O)C1=C(O)C(=O)N(c2ccc(S(=O)(=O)Nc3nccs3)cc2)C1c1ccc(F)cc1 (configuration not stated),inactive: -15.9%,
CCn1c(=O)cc(OCC(=O)N2CCCCCC2)c2ccccc21,inactive: 15.8%,
Clc1cccc(Nc2ncnc3c2nc2n3CCCCC2)c1,inactive: -15.8%,
CCN1C(=NCc2ccco2)N[C@@H](c2cccc(C(F)(F)F)c2)C(C(=O)OC)=C1C,,"inconclusive: 14.1 µM [inhibitor, full curve, poor fit]"
CC1CCN(C(c2ccc(N(C)C)cc2)c2nnnn2Cc2ccc(F)cc2)CC1 (configuration not stated),,"inconclusive: 79.4 µM [inhibitor, partial curve]"
COc1cccc(N2CCN(CC(=O)c3c(C)[nH]c4ccccc34)CC2)c1,,"inconclusive: 39.8 µM [inhibitor, partial curve]"
Cc1ccc(C(=O)NC(=S)Nc2ccccc2N2CCOCC2)cc1C,,"inconclusive: 50.1 µM [inhibitor, partial curve]"
CN(C)c1ccc(-c2noc(C3CCN(S(=O)(=O)c4cccc(Cl)c4)CC3)n2)cc1,,"inconclusive: 35.5 µM [inhibitor, partial curve]"
COc1cc(Nc2nc3c(S(=O)(=O)c4ccccc4)nnn3c3ccc(Cl)cc23)cc(OC)c1,inactive: -7.27%,
O=C(c1cncc(Br)c1)N1CCN(S(=O)(=O)c2ccccc2C(F)(F)F)CC1,,"inconclusive: 28.2 µM [inhibitor, single point]"
CN1CCN(CCC(=O)N/N=C/c2cc([N+](=O)[O-])ccc2O)CC1,,"inconclusive: 39.8 µM [inhibitor, single point]"
Cc1ccc(N=C2C(=O)Nc3ccccc32)cc1,inactive: -14.1%,
O=C(COc1ccc(Cl)cc1)OCc1cc(=O)n2nc(C3CCCCC3)sc2n1,inactive: -8%,
COc1cc(CN2CCC(C(=O)NCCC(C)C)CC2)ccc1OCc1ccccc1,,active: 28.2 µM
CCOC(=O)CSc1ccc(S(=O)(=O)N2CCCCC2)cc1[N+](=O)[O-],,"inconclusive: 28.2 µM [inhibitor, full curve]"
CN1CCN(c2nc3cc(C(F)(F)F)ccc3n3cccc23)CC1,,"inconclusive: 56.2 µM [inhibitor, partial curve]"
"C[C@@H]1NC(=O)c2cc([N+](=O)[O-])cc(I)c2OCC[C@@H](C(=O)NC(CC(=O)O)C(N)=O)NC(=O)[C@H](CCC(=O)O)NC1=O (some centres not stated) (AE[hSer(Ph(2-I,4-NO2,6-CO))][ξD]-NH2; lactam N-3)",,"inconclusive: 22.4 µM [inhibitor, partial curve]"

SMILES,"activity change, negative = inhibition",Potency
COC(=O)c1[nH]c2cc(OC)ccc2c1NC(=O)CCN1CCCCC1,inactive: -6.32%,
Cc1ccc(S(=O)(=O)c2nc(-c3cccs3)oc2N2CCC(C)CC2)cc1,,"inconclusive: 39.8 µM [inhibitor, partial curve]"
CC(C)CN(C(=O)CCc1ccccc1)c1c(N)n(CC(C)C)c(=O)[nH]c1=O,inactive: -17.7%,
O=C(NC1CC1)c1cccc(NC(=O)c2cn3ccccc3n2)c1,,active: 39.8 µM
O=c1c2cc(-c3ccccc3)sc2nc2n1N=C(c1ccccc1)CS2,inactive: -8.11%,
COCCNCC(=O)N1CCCCCC1,,active: 3.55 µM
CCC1CCc2c(sc(NC(=O)c3cnccn3)c2C(N)=O)C1 (configuration not stated),,"inconclusive: 89.1 µM [inhibitor, single point]"
CC1Nc2ncnc(N3CCN(c4ccccc4)CC3)c2N(Cc2ccc(Br)cc2)C1=O (configuration not stated),,"inconclusive: 63.1 µM [inhibitor, partial curve]"
COc1ccc(C(=O)NCc2cn3ccc(C)cc3n2)cc1,inactive: -1.99%,
Cc1sc(N(C(=O)CCc2ccccc2)c2ccc(C(=O)O)cc2)nc1-c1ccccc1,,"inconclusive: 56.2 µM [inhibitor, single point]"
Cc1cc(C(=O)N/N=C/c2cccc3ccccc23)c(C)o1,inactive: -6.21%,
O=c1cc(CSc2n[nH]c(=O)n2C2CC2)c2ccc(O)cc2o1,inactive: -18.2%,
CCOc1c(Br)cc(CNc2ccc(N3CCOCC3)cc2)cc1OC,,active: 50.1 µM
CCCCn1c(N)c(N(CCOC)C(=O)c2cc(-c3ccco3)nc3ccccc23)c(=O)[nH]c1=O,,active: 39.8 µM
O=C(O)/C=C/c1ccc(Cn2ccnc2)cc1,,"inconclusive: 79.4 µM [inhibitor, single point] and inconclusive: 79.4 µM [inhibitor, partial curve]"
CCc1nnc(NS(=O)(=O)c2ccc(NCc3cc(Cl)cc(Cl)c3O)cc2)s1,,"inconclusive: 25.1 µM [inhibitor, single point]"
Cn1c(C(=O)N2CCN(c3ncccn3)CC2)cc2c(=O)n(C)c3ccccc3c21,inactive: -2.14%,
COc1ccc(-c2nc(CS(=O)CC(=O)NCc3ccco3)c(C)o2)cc1OC (configuration not stated),,"inconclusive: 100 µM [inhibitor, single point]"
COc1ccc(OC)c(S(=O)(=O)NCc2cn3ccsc3n2)c1,,"inconclusive: 25.1 µM [inhibitor, partial curve]"
CCCCN(CCCC)C(=O)c1c[nH]c2ccc(S(=O)(=O)Nc3cccc(Cl)c3C)cc2c1=O,,"inconclusive: 56.2 µM [inhibitor, partial curve]"
O=S(=O)(Nc1ccccc1N1CCCCC1)c1ccc(Cl)s1,,"inconclusive: 3.55 µM [inhibitor, single point]"
